Results on 4 molecules are retold here after patent US8153787B2 (priority 2005, dated 2012).

≈ marks a conversion by molar mass, not a printed value. Where two headings read alike, the source gives them in different places. Where only a bound is given, the exact number is not on record here.

In one experiment the test system is HHV-6A, strain GS. In words: microbe, parasite or virus in culture. In kind it is cell-based, human herpesvirus 6.
Another experiment relates to HHV-6B, strain Z29. In words: microbe, parasite or virus in culture. In kind it is cell-based, human herpesvirus 6.
The subject of experiment [1] is human adenovirus type 2.
Experiment [2] has as its system human adenovirus type 2. In words: microbe, parasite or virus in culture. As to conditions: Human mastadenovirus C, HEL.
The mark [3] stands for this setting: Human betaherpesvirus 6, HSB2, read-out: Antiviral activity EC50 (CPE), HHV-6A.
The mark [4] stands for this setting: Human betaherpesvirus 6, HSB2, read-out: Antiviral activity EC50 (qPCR), HHV-6A.
The mark [5] stands for this setting: Human betaherpesvirus 6, MOLT-3, read-out: Antiviral activity EC50 (CPE), HHV-6B.
The mark [6] stands for this setting: Human betaherpesvirus 6, MOLT-3, read-out: Antiviral activity EC50 (qPCR), HHV-6B.
Where [7] appears, read: read-out: Antiviral activity EC50 (CPE).
Where [8] appears, read: read-out: Antiviral activity EC50 (MTS).

Broadly, the EC50 is the concentration that produces a half-maximal response. For `Nc1ncn(C[C@@H](CO)OCP(=O)(O)O)c(=O)n1` [Compound 3, (S)-1-[3-hydroxy-2-(Phosphonomethoxy)propyl]-5-azacytosine], the EC50 with HHV-6A, strain GS (setting [3]) worked out at 0.55 µg/mL (≈ 1.96 µM); in the experiment on HHV-6A, strain GS (setting [4]), 0.56 µg/mL (≈ 2 µM); in the experiment on HHV-6B, strain Z29 (setting [5]), 0.23 µg/mL (≈ 0.821 µM); in the experiment on HHV-6B, strain Z29 (setting [6]) it was 0.34 µg/mL (≈ 1.21 µM); with human adenovirus type 2 [2] (setting [7]), 0.6 µg/mL (≈ 2.14 µM); in the experiment on human adenovirus type 2 [2] (setting [8]) it was 1.1 µg/mL (≈ 3.93 µM). In addition, in the experiment on human adenovirus type 2 [1], the “activity against Ad2 compared with cidofovir” value was “clearly more active”.
On to `Nc1ccn(C[C@@H](CO)OCP(=O)(O)O)c(=O)n1` [HPMPC, (S)-1-(3-hydroxy-2-phosphonylmethoxypropyl)cytosine, reference compound], for which the EC50 turned out to be 3.9 µg/mL (≈ 14 µM) with HHV-6A, strain GS (setting [3]); 2.1 µg/mL (≈ 7.52 µM) in the experiment with HHV-6A, strain GS (setting [4]); 0.84 µg/mL (≈ 3.01 µM) with HHV-6B, strain Z29 (setting [5]); 0.56 µg/mL (≈ 2.01 µM) in the experiment with HHV-6B, strain Z29 (setting [6]); 1.4 µg/mL (≈ 5.01 µM) in the experiment with human adenovirus type 2 [2] (setting [7]); 3.2 µg/mL (≈ 11.5 µM) in the experiment on human adenovirus type 2 [2] (setting [8]).
As to `NC(=NC(=O)NC[C@@H](CO)OCP(=O)(O)O)NC=O.[Na]` [Compound 3a, Sodium 3-formyl-2-{[(2S)-3-hydroxy-2-(phosphono-methoxy)propyl]carbamoyl}guanidine], the EC50 with HHV-6A, strain GS (setting [3]) is 5.8 µg/mL; in the experiment with HHV-6A, strain GS (setting [4]), 20.8 µg/mL; in the experiment on HHV-6B, strain Z29 (setting [5]), 3.6 µg/mL; in the experiment on HHV-6B, strain Z29 (setting [6]), 5.5 µg/mL; in the experiment with human adenovirus type 2 [2] (setting [7]), 11.3 µg/mL; in the experiment with human adenovirus type 2 [2] (setting [8]) it was 31.8 µg/mL.
On to `NC(N)=NC(=O)NC[C@@H](CO)OCP(=O)(O)O` [Compound 10, 2-{[(2S)-3-Hydroxy-2-(Phosphonomethoxy)propyl]carbamoyl}guanidine], for which the EC50 in the experiment with HHV-6A, strain GS (setting [3]) was > 200 µg/mL.
